From PubChem BioAssay AID485281 (National Center for Advancing Translational Sciences (NCATS), 2010)
In all, about 350,000 compounds went through this assay and about 260 (0.074%) were called active. Inconclusive results, whose numbers are uncertain, are shown with a selection of clear calls. Calls come from the whole dose curve; as a rule, active = well fitted inhibition curve with a large enough effect; inconclusive = small, poorly fitted or top-dose-only effect; inactive = no such curve, though single readings can be large or run the other way. Potencies of inconclusive entries are doubtful fits and often do not repeat.

What follows are compounds tested against Ferritin light chain (Equus caballus) (UniProt P02791) (assay: qHTS Assay for Identification of Novel General Anesthetics). Details: apoferritin/1-aminoanthracene competitive binding, fluorescence; activity change, negative = displacement: at 77.5 µM (top of the series).
Procedure, shortened: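 Horse-spleen apoferritin (10 uM) in 50% saturated 1-aminoanthracene in PBS was incubated 10 min at room temperature with compound. Fluorescence (ex 380, em 535 nm) was normalized to free and bound 1-AMA, with concentration-response fitted by a four-parameter Hill equation.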
% is set by controls: 0 for no effect and ±100 for the full control effect; potency is the fitted concentration of half-maximal effect; tags give direction and shape of the fitted curve.
Note: nearly all actives have a fitted effect of over 20% in size.

UniProt P02791, sequence (P02791 whole entry, looked up): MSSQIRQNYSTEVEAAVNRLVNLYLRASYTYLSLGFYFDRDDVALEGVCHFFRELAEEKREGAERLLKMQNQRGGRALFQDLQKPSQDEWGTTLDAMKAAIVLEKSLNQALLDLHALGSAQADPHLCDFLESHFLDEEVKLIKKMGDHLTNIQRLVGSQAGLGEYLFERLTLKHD

Potency, inconclusive:
CCn1c(SCc2ccc(F)cc2Cl)nnc1-c1nonc1NC(C)=O 44.7 µM [inhibitor, single point], O=c1[nH][nH]c(-c2ccccc2)c1C=Nc1ccc(Cl)cc1 25.1 µM [inhibitor, partial curve], O=C(CCC1N=C2c3ccccc3N=C(SCc3ccccc3F)N2C1=O)NCCc1ccccc1 (stereo unspecified) 28.2 µM [inhibitor, partial curve], CCOc1ccc(CNC(=O)c2cccc(NC(=O)N3CCSc4ncccc43)c2)cc1 28.2 µM [inhibitor, single point], S=C(NCc1ccco1)Nc1ccc2c(c1)OCCO2 17.8 µM [inhibitor, partial curve], Cc1cccc(NS(=O)(=O)c2ccc(C3CCCCC3)cc2)n1 20 µM [inhibitor, partial curve], Cc1ccc(CC(CC(=O)O)C(=O)Nc2ccc(Cl)cc2)cc1 (stereo unspecified) 28.2 µM [inhibitor, single point], COc1ccc(C(=O)CSc2nnc(CNc3nc(-c4ccccc4)cs3)n2C)cc1 28.2 µM [inhibitor, partial curve], COc1cc(S(=O)(=O)N(Cc2ccc(C)cc2)C2CCCCC2)ccc1-n1cnnn1 3.98 µM [inhibitor, partial curve], Oc1c(C=C2N=c3ccccc3=N2)sc(=S)n1-c1ccc(F)cc1 35.5 µM [inhibitor, partial curve], CC1Cc2ccccc2N1C(=O)c1ccc2snnc2c1 (stereo unspecified) 35.5 µM [inhibitor, partial curve], COc1ccc(-n2nc3c(N4CCCC(C(=O)NCc5ccc(C)cc5)C4)nnc(C)c3c2C)cc1 (stereo unspecified) 12.6 µM [inhibitor, partial curve], COc1cccc(NC(=O)CSc2nnc(-c3cccc(OC(C)C)c3)n2N)c1 28.2 µM [inhibitor, single point], COCc1cccc(N2C(=O)CC(C3C=C(C)C4C(=O)N(c5cccc(COC)c5)C(=O)C4C3)C2=O)c1 (stereo unspecified) 28.2 µM [inhibitor, single point], CC(C)(C)c1cc2cccnc2n1Cc1cccc(Cl)c1 28.2 µM [inhibitor, partial curve], c1ccc2c(c1)CCN(c1nc3ccccc3n3cnnc13)C2 39.8 µM [inhibitor, single point], Cc1ccn2c(C(=O)c3ccc(Cl)cc3)cnc2c1 39.8 µM [inhibitor, partial curve], CC(C)Nc1nc(NC(C)C)nc(N(C)N)n1 44.7 µM [inhibitor, partial curve], CCn1c(C)nc2cc(C(=O)NNS(=O)(=O)c3c(C)c(C)cc(C)c3C)ccc21 44.7 µM [inhibitor, single point], O=C(NC1C2CC3CC(C2)CC1C3)c1ccc(Br)o1 (stereo unspecified) 11.2 µM [inhibitor, partial curve], CCCCN1C(=O)c2[nH]nc(-c3ccccc3O)c2C1c1ccc(C(C)(C)C)cc1 (stereo unspecified) 1.26 µM [inhibitor, full curve, poor fit], N#CC(c1ccncc1)(c1ncc(C(F)(F)F)cc1Cl)N1CCOCC1 (stereo unspecified) 35.5 µM [inhibitor, partial curve], CCOC(=O)CSc1nc(C2CC2)nc2ccccc12 20 µM [inhibitor, partial curve], COc1cc(CNc2nc3c(C)cc(C)cc3s2)ccc1O 56.2 µM [inhibitor, single point], CCN(CC)C(=O)CSc1nc2c(sc(=S)n2-c2ccccc2)c(=O)n1Cc1ccco1 17.8 µM [inhibitor, partial curve], O=C(COC(=O)c1cccnc1Cl)c1cccc(Cl)c1 31.6 µM [inhibitor, partial curve], NC(=S)Nc1nc2ccccc2[nH]c1=O 31.6 µM [inhibitor, single point], CC(NCc1nc2ccccc2n1C)C12CC3CC(CC(C3)C1)C2 (stereo unspecified) 39.8 µM [inhibitor, single point], Cc1ccccc1N1CCN(C2CCCN(C(=O)c3noc4c3CCCC4)C2)CC1 (stereo unspecified) 28.2 µM [inhibitor, single point], c1ccc(NC2=Nc3cccc4cccc2c34)cc1 22.4 µM [inhibitor, partial curve], O=C(Nc1ccc(Br)cc1)N1CCCCC1 25.1 µM [inhibitor, partial curve], Oc1ccccc1C=NC1CCCCC1N=Cc1ccccc1O (stereo unspecified) 31.6 µM [inhibitor, single point], c1ccc(OCc2nc(-c3cccs3)no2)cc1 12.6 µM [inhibitor, partial curve], Cc1cccc(NC(=O)c2ccc(Cn3cc(C(F)(F)F)ccc3=O)cc2)c1 50.1 µM [inhibitor, single point], CSc1ccc(C(=O)C2CCCN(C(=O)c3ccsc3)C2)cc1 (stereo unspecified) 35.5 µM [inhibitor, single point], CC1CCC(C(C)C)C(OC(=O)CSc2nccc(=O)[nH]2)C1 (stereo unspecified) 44.7 µM [inhibitor, single point], C[C@H](NC(=O)c1nc[nH]c1C(=O)NCC(=O)OC(C)(C)C)C(=O)OCc1ccccc1 31.6 µM [inhibitor, partial curve], CCOC(=O)C1CCN(Cc2oc(CO)cc(=O)c2O)CC1 25.1 µM [inhibitor, partial curve], Cc1nc(N)sc1N=Nc1ccc(F)cc1 44.7 µM [inhibitor, partial curve], COc1cc(C(=S)N2CCOCC2)cc(OC)c1OC(=O)c1cc([N+](=O)[O-])cc([N+](=O)[O-])c1 15.8 µM [inhibitor, partial curve], O=C(NN1C(=O)/C(=C\c2cccnc2)SC1=S)C(c1ccccc1)c1ccccc1 20 µM [inhibitor, partial curve], OCC1(CCOc2ccccc2)CCN(Cc2ccccc2C(F)(F)F)CC1 31.6 µM [inhibitor, single point], CCC(=O)Nc1cccc(C(=O)/C=C/c2ccccc2)c1 22.4 µM [inhibitor, partial curve], CCOc1ccc(-c2nc(SCC(=O)c3ccccc3)n[nH]2)cc1 25.1 µM [inhibitor, partial curve], O=C(Nc1ccc(C(F)(F)F)cc1Cl)c1ccc(Cn2cc(Br)cn2)o1 35.5 µM [inhibitor, partial curve], C=CCSc1nnc(NC(=O)Cc2ccc(OC)c(OC)c2)s1 15.8 µM [inhibitor, partial curve], COc1ccc(NC(=O)CCC2CCCC2)cc1OC 28.2 µM [inhibitor, partial curve], Cc1sc(NC(=O)C2C3CCC(O3)C2C(=O)O)nc1-c1ccc(CC(C)C)cc1 (stereo unspecified) 22.4 µM [inhibitor, partial curve], CCn1c(SCC(=O)N/N=C/C=C/c2ccco2)nc2ccccc21 28.2 µM [inhibitor, partial curve], CCc1ccc(CN2CCc3nc(Nc4ccccc4)ncc3C2)cc1 15.8 µM [inhibitor, partial curve], Cc1ccccc1C(=O)NC(=S)Nc1ccccc1[N+](=O)[O-] 35.5 µM [inhibitor, partial curve], COc1cccc(-c2ccc(NC(=O)C3CCCN(Cc4cnc(C)s4)C3)cc2)c1 (stereo unspecified) 28.2 µM [inhibitor, partial curve], COc1ccc(C(C)(C)C)cc1NC(=O)C1CC=CCC1C(=O)O (stereo unspecified) 31.6 µM [inhibitor, single point], c1ccc(Cc2nnc3sc(-c4ccc5c(c4)OCCO5)nn23)cc1 35.5 µM [inhibitor, partial curve], COc1cc(-c2nnc3sc(Cc4ccccc4)nn23)cc(OC)c1OC 25.1 µM [inhibitor, partial curve]

Activity change, negative = displacement, inactive:
Cc1ccc(SCCNC(=S)Nc2cc(C)ccc2C)cc1 10.2%, C[C@H]1[C@H](NC(=O)/C(=N/OC(C)(C)C(=O)O)c2csc(N)n2)C(=O)N1S(=O)(=O)O (stereo in doubt) -1.8% [at 29.3 µM], O=C(CS(=O)(=O)c1ccccc1)c1cc2ccccc2oc1=O -16.5%, COCCCNCCCCOc1ccc(Br)cc1Cl -3.62%, CCC1CCCCN1C(=O)CSc1nnc(-c2cccs2)o1 (stereo unspecified) -21.9%, Cc1ccc(C2=Nc3ccccc3N(CC(=O)Nc3ccccc3F)C(=O)C2)cc1C -0.77%, COC(=O)c1ccc(NC(=O)CSCc2ccccc2C)cc1 -23.5%, Brc1ccc(CNc2ccc3ncccc3c2)cc1 1.1%, COc1ccccc1NC(=S)N1CC(C)(C)C1=O 0.444%, COCCCNC(=O)c1c(N)n(/N=C/c2cccs2)c2nc3ccccc3nc12 -6.28%, Cc1ccc(NC(=O)C(=O)NCC(c2cccnc2)N2CCN(c3ccccc3F)CC2)cc1Cl (stereo unspecified) -23.4%
